ChEMBL document CHEMBL4888484, “Replenishing the malaria drug discovery pipeline: Screening and hit evaluation of the MMV Hit Generation Library 1 (HGL1) against asexual blood stage Plasmodium falciparum ,using a nano luciferase reporter read-out” (2022)
The whole screen tested about 150,000 compounds, of which about 540 (0.36%) showed an effect of 50% or more. This is one part of the list.

test system: Plasmodium falciparum; experiment: Primary screen in NF54 nanoGlo assay, in single point, at 2uM, 72h; a lower Z score goes with more inhibition; type: functional, Erythrocyte; details: timepoint 72 hour

SMILES | % Inhibition [%] | Z score
COC[C@H](C)NC(=O)c1ccc2oc(C(C)C)nc2c1 | -17 | 1.46
CCS(=O)(=O)N1CCN(c2ccc(C3CC3)nn2)CC1 | 11 | -1.41
CN1CCO[C@H](C(=O)N2CCC(c3ncc(C(F)(F)F)[nH]3)CC2)C1 | -4 | 0.48
Fc1ccc2nc(-c3cnc(-c4ccccc4)nc3)[nH]c2c1 | -2 | 0.21
Cc1n[nH]c(C)c1CC(=O)N[C@@H](C)c1ncnn1C | -2 | 0.39
O=S(=O)(CCCN1CCN(CCO)CC1)c1ccc(Cl)cc1 | 0 | 0.06
CCOCC(=O)N1CCC[C@@H]1Cn1ccnc1 | 5 | -0.87
Cc1cc(N2CCCN(c3ccc4nncn4n3)CC2)n2ncnc2n1 | -9 | 1.04
CC(=O)NCc1cc(Cl)cc(Cl)c1OC(F)F | -13 | 1.56
NC(=O)Cc1nc([C@H]2CCS(=O)(=O)C2)n(-c2ccc3c(c2)CCC3)n1 | -7 | 1.32
O=C(Nc1cc(NC(=O)C2CCCOC2)nc(-c2ccccc2)n1)C1CCCOC1 (stereo unspecified) | 0 | 0.02
COc1ccc2ncn(C[C@H]3CCCOC3)c(=O)c2c1 | -12 | 1.53
CCc1ncn2ccnc(N3CCN(C(=O)c4ccco4)CC3)c12 | 2 | -0.18
CCOc1cc(Cl)ccc1CNC(=O)c1c[nH]c(C)cc1=O | -10 | 1.88
CC1CN(C(=O)c2cc3nccnc3cc2F)CC[S+]([O-])C1 (stereo unspecified) | -8 | 0.86
CCN(C)CC1CCN(C(=O)C2CCCN(C(=O)c3ccc(F)cc3)C2)C1 (stereo unspecified) | 3 | -0.41
Cc1ccc(-c2cc(=O)[nH]c(N3CCN(C(c4ccccc4)c4ccccc4)CC3)n2)cc1 | -3 | 0.33
CCS(=O)(=O)N(CCN1CCCCC1)C1CN(C(=O)c2cc(OC)cc(OC)c2)C1 | 1 | -0.2
C=C1C(C(=O)Nc2c(C)cccc2CC)[C@H]1C(=O)Nc1c(C)cccc1CC (stereo partly specified) | 12 | -1.57
Cc1csc(C2(NCc3ccoc3C)CCOCC2)n1 | -14 | 1.94
COc1cccc(CC(=O)N2CCc3c(c(-c4nncn4C)nn3C)C2)c1 | 5 | -0.62

SMILES | % Inhibition [%] | Z score
COC(C(=O)NC1CCCN(CC(F)(F)F)C1)c1cnn(C)c1 (stereo unspecified) | -6 | 1.14
CCn1ncc(CN2CC[C@H](CNC(=O)N3CCCC3)[C@@H](O)C2)c1C | 0 | 0.06
CN(C(=O)CN1CC[C@@]2(CCCN(Cc3ccccc3)C2)C1)C1CC1 | -10 | 1.66
c1ccc(-c2noc(-c3cc(C4CC4)nc4ccccc34)n2)nc1 | -2 | 0.19
COCCc1nnc2n1CCC1(CC2)CCN(C(=O)CCS(=O)(=O)c2ccccc2)CC1 | -11 | 1.04
CCOc1ccncc1S(=O)(=O)N1CCOc2ncc(C)cc21 | 8 | -1.35
CC(=O)Nc1ccccc1-c1noc(-c2cc(C)oc2C)n1 | -13 | 2
CC(C)CNC(=O)c1cc2cc(NC(=O)c3ccccc3Cl)ccc2n1Cc1ccc(C(C)(C)C)cc1 | -6 | 0.67
O=C1COc2c(F)cc(NC(=O)N[C@H]3COC[C@@H]3N3CCCCC3)cc2N1 | 13 | -1.72
Cc1ccc(-n2ccnc2)c(C(=O)NC[C@H](O)c2ccco2)c1 | -5 | 0.97
Cc1nc(NC(=O)CCc2ccncc2)n(C)n1 | -9 | 1.31
CC(C)(C)OC(=O)N[C@@H](COCc1ccccc1)C(=O)O | -15 | 2.93
Cc1nc(C(C)C)ncc1C(=O)N(C)Cc1snnc1C | -12 | 1.15
CC(C)c1nsc(N2CCS(=O)(=O)C(C)(C)C2)n1 | -15 | 1.72
CCN1CCCN(C(=O)CC2CCCC2)CC12CCOCC2 | -5 | 0.62
O=C(NCC(CO)CC1CCCCC1)[C@@H]1CCCO1 (stereo partly specified) | -7 | 0.8
COc1ccc(/C=C/CN2CCC(CCC(=O)NCc3ccc(F)cc3)CC2)cc1 | -20 | 1.84
Cn1cnc2cc(OC(=O)c3cccc4ccccc34)ccc21 | -17 | 3.25
CC(C)N(CC(=O)N1c2ccccc2-n2cccc2[C@H]1c1cccc(Cl)c1)C(=O)C(c1ccccc1)c1ccccc1 | -6 | 1.24
Cc1nc(CNc2nc(-c3ccccn3)nc3c2CCNCC3)no1 | -3 | 0.47
CCNC(=O)[C@H]1CCN(Cc2cnc(CCOC)nc2)C1 | 1 | -0.2

SMILES | % Inhibition [%] | Z score
CN1C(C(=O)N2CCN(c3ccc(F)cc3)CC2)=CC(c2ccc3c(c2)OCO3)=NS1(=O)=O | -14 | 2.74
O=C(c1ccc2[nH]cnc2c1)N1CC(S(=O)(=O)C2CCCCC2)C1 | -6 | 1.15
CCOC(=O)c1c(S(=O)(=O)N2CCC[C@H](C(=O)N3CCCCC3)C2)c(C)n(C)c1C | -8 | 1.36
FC(F)(F)c1cccc(-c2ccc(CNC[C@H]3CCCO3)o2)c1 | 3 | -0.39
O=C(COC[C@H]1CCCO1)NCc1ccc(-c2cccc(Cl)c2)o1 | -10 | 0.96
O=C(c1ccc2ncccc2c1)N1CCC2(CC1)NCCc1c2[nH]c2ccccc12 | -15 | 1.97
CN(C(=O)c1ccn2nnnc2c1)[C@@H](CCc1ccccc1)C(F)F | 1 | -0.11
CN1CCN(C(=O)c2cc3nc(-c4ccc(Cl)c(Cl)c4)cc(C(F)(F)F)n3n2)CC1 | -1 | 0.18
CC(C)(C)OC(=O)N1CCC[C@H]1C(=O)OCCNS(C)(=O)=O | 8 | -0.83
Cc1n[nH]c2c1CN(C(=O)c1ccc(=O)n(C)c1)CC2 | -5 | 0.89
Cc1c(C(=O)O)nnn1-c1ccc(-c2ccccc2)cc1 | 3 | -0.48
CCOC1CC(NC(=O)c2cc(OC)c(OC)c(OC)c2)C1(C)C (stereo unspecified) | 1 | -0.2
CN1CCC[C@@]2(CCN(C(=O)NCc3ccccc3-c3cnn(C)c3)C2)C1 | -8 | 0.85
CN1c2cc(C(=O)Nc3cccc(Cl)c3)ccc2C(=O)N2CCCCC[C@H]21 | 9 | -1.57
Cn1nc(-c2nc(C3CCCC3)nn2[C@H]2CCS(=O)(=O)C2)ccc1=O | -17 | 3.11
Cc1cc(C(C)NC(=O)C2CNC(=O)N2)c(C)s1 (stereo unspecified) | -8 | 0.99
CC(C)=CCO[C@H]1CCOC[C@H]1NC(=O)c1ccccc1N1CCCC1 | -3 | 0.4
CC(C)c1nnc(NC(=O)c2cccnc2Oc2ccc(F)cc2Br)s1 | -31 | 3.58
O=C(c1cc(-c2ccco2)[nH]n1)N1CCc2ccccc2C1 | -20 | 3.35
Cc1nn(-c2ccc3nncn3n2)c(C)c1CCC(=O)NC1CCCCC1 | 0 | 0.03
O=C1NC(=O)C2(CCN(C(=O)c3cc(Cl)c[nH]3)CC2)N1 | -9 | 0.89

SMILES | % Inhibition [%] | Z score
c1ccc(-c2nc3nc(-c4cccs4)cn3nc2-c2ccccc2)cc1 | 6 | -0.73
O=C(CCCc1nc(C2CC2)no1)Nc1ccc(-n2cnnn2)cc1 | -10 | 1.13
Cc1nn(CCNS(=O)(=O)N(C)C)c(C)c1-c1ccsc1 | 24 | -2.99
C[C@H](NC(=O)OC(C)(C)C)c1nc(-c2cnn(C)c2)cs1 | 4 | -0.5
O=S(=O)(c1ccc(-c2cc(C(F)(F)F)on2)o1)N1CCN(c2cccc(Cl)c2)CC1 | -9 | 1.56
CCO[C@@]1(C)C[C@H]1NC(=O)NCc1cccc(Cl)c1O | -4 | 0.58
Cc1cc(O)c2cc(C(=O)Nc3ccc(C(N)=O)cc3)ccc2n1 | -5 | 0.7
CCOC(=O)[C@H]1CCCN(C(=O)CN(C)C(=O)c2cc3n(n2)CCCN(Cc2ccc(C)cc2)C3=O)C1 | -7 | 0.83
CC(=O)Nc1nc(C(=O)N2C[C@@H](C)CC(C)(C)C2)cs1 | -4 | 0.7
CCN(CC)C(=O)c1cn2c3c(cccc3c1=O)C[C@@H]2C | 15 | -1.9
Cc1nc2c(s1)CCC[C@@H]2NC(=O)CCc1cccnc1 | -1 | 0.08
CC[C@H](C)NC(=O)CCc1c(-c2ccc(Cl)cc2)nc2ccc(-c3cccc(C(F)(F)F)c3)cn12 | -11 | 1.28
O=c1[nH]ccc2ccc(-n3ncc4cccnc43)cc12 | -12 | 1.7
Cc1cnn(Cc2cccc(F)c2)c1NC(=O)c1cccc2c1OCC2 | 7 | -0.94
Cc1nonc1CN1CCC[C@H](C(=O)Nc2ccccn2)C1 | -3 | 0.6
Cc1cc(CS(=O)(=O)Cc2noc(C(C)(C)C)n2)on1 | -6 | 0.51
CC(C)c1ccc(C#N)c(N(C)CCn2ccnc2)n1 | -13 | 1.33
CC(C)(C)c1ncc(CN2CC(O)(c3ccccc3)C2)s1 | -11 | 1.79
Cc1nc(CN2CC[C@H](NC(=O)C3CCOCC3)[C@@H](O)C2)cs1 | -12 | 2.19
CC1CC(C)CN(Cc2ccc(CNC(=O)C3CCCN(C(=O)C(C)C)C3)cc2)C1 (stereo unspecified) | 2 | -0.32
